Assay results reported in patent US20250049939A1, “NOVEL FLT3 ANTIBODIES AND ANTIBODY-DRUG-CONJUGATES BASED THEREON, THERAPEUTIC METHODS AND USES THEREOF IN COMBINATION WITH TYROSINE KINASE INHIBITORS” (TUBULIS GmbH, priority 2021, published 2025).

Columns and labels:
recombinant human FLT3 = target: T1, recombinant human FLT3 (Homo sapiens, UniProt P36888); assay: ELISA affinity to recombinant human FLT3; assay type: binding; settings: chimeric Ab clones
T1 construct: purchased Sino Biological 10445-H08H
T1 sequence (P36888 27-541 limits assumed): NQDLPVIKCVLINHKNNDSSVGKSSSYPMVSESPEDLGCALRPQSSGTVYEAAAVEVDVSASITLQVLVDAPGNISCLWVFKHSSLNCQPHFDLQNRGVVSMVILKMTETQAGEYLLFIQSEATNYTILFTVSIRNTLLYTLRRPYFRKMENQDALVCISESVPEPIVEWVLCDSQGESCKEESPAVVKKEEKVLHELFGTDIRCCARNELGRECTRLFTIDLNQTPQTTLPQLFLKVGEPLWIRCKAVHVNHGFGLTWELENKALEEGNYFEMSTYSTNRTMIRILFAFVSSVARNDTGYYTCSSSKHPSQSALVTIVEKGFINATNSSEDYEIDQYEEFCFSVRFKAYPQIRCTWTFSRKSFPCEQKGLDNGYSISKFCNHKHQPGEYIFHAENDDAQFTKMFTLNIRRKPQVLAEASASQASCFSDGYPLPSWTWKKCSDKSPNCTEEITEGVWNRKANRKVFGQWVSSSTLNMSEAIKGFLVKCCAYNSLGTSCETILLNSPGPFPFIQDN
Source text: FIG. 1: Evaluation of epitope specificity and internalization capability of anti-FLT3 monoclonal antibodies. (A) Affinity of seven anti-FLT3 monoclonal antibody (mab) clones to recombinant human FLT3 measured in enzyme-linked immunosorbent assay (ELISA) normalized to the binding of the antibodies to BSA control. […] (B) Schematic FLT3 receptor. Black arrows indicate common mutations and blue arrows indicate the three identified epitopes of seven anti-FLT3 antibodies analyzed in linear epitope mapping by PEPperPRINT. Figure was created with BioRender.com. (C) Binding and temperature induced internalization of anti-FLT3 antibodies in Ba/F3 cells expressing human wildtype FLT3. Internalization was induced by incubation for 30 min at 37° C. (grey) compared to 4° C. (black). Remaining surface-bound antibody was detected in flow cytometry. MFI was normalized to control human IgG1 binding. MFI=mean fluorescence intensity. […] (D) Cell surface binding of 20D9 mab or control human IgG1 antibody to Ba/F3 cells stably expressing pMIY (Ba/F3-pMIY) empty vector (ev), human wildtype (hFLT3 wt) or ITD mutant human FLT3 (hFLT3ITD) was measured in flow cytometry. Mean±s.d. of n=3. (E) Temperature induced internalization of 4B12 mab in MOLM-13 (FLT3 positive) cells after 30 min incubation at 37° C. compared to 4° C. and HL-60 (FLT3 negative) after 37° C. incubation assessed in immunofluorescence staining. […] (F) Cell surface binding of 20D9 mab or control hIgG1 antibody to Ba/F3-pMIY ev, hFLT3 wt, murine (mFLT3 wt) or cynomolgues monkey FLT3 (cynoFLT3 wt) was measured in flow cytometry. […] (G) Cell surface binding of 20D9 mab or control hIgG1 antibody to Ba/F3-PMIY ev, hFLT3 wt or epitope mutant FLT3 (hFLT3/S50P/P54R) measured in flow cytometry. […] (H) Cell surface binding of 20D9 mab or control hIgG1 antibody to Ba/F3-PMIY ev, hFLT3 wt or human CD64 (hCD64) measured in flow cytometry. […]
Maxisorp plates were coated with human recombinant FLT3 protein (10445-H08H, Sino Biological). […] The fluorescence was read with excitation of 405 nm and emission at 500-550 nm. […]

[1] = tested on: MOLM-13 (FLT3 positive) cells; assay: Temperature induced internalization in MOLM-13, flow cytometry; assay type: cell-based, human; settings: 30 min at 37° C. compared to 4° C.
Description: (§1) For antibody binding studies, cells were stained on ice with primary mouse, rat or human anti-FLT3 antibodies (in house) and secondary antibody Goat F(ab′)2 Anti-Human Ig-PE (2012-09), Goat Anti-Mouse IgG (H+L)-PE (1032-09) or Goat Anti-Rat IgG (H+L)-PE (3052-09) purchased from Southern Biotech. For internalization experiments, cells incubated with anti-FLT3 antibodies were washed and incubated for 30 min at 4° C. or 37° C. followed by staining with secondary antibody.

[2] = target: T2, Ba/F3 cells expressing human wildtype FLT3 (Homo sapiens, UniProt P36888); assay: Temperature induced internalization in Ba/F3-FLT3, flow cytometry; assay type: cell-based; settings: 30 min at 37° C. compared to 4° C.
T2 construct: expressed in transfected cells; host or cells: Ba/F3 cells, retrovirally transduced with MSCV-IRES-YFP (pMIY) vector
T2 sequence (P36888 27-993): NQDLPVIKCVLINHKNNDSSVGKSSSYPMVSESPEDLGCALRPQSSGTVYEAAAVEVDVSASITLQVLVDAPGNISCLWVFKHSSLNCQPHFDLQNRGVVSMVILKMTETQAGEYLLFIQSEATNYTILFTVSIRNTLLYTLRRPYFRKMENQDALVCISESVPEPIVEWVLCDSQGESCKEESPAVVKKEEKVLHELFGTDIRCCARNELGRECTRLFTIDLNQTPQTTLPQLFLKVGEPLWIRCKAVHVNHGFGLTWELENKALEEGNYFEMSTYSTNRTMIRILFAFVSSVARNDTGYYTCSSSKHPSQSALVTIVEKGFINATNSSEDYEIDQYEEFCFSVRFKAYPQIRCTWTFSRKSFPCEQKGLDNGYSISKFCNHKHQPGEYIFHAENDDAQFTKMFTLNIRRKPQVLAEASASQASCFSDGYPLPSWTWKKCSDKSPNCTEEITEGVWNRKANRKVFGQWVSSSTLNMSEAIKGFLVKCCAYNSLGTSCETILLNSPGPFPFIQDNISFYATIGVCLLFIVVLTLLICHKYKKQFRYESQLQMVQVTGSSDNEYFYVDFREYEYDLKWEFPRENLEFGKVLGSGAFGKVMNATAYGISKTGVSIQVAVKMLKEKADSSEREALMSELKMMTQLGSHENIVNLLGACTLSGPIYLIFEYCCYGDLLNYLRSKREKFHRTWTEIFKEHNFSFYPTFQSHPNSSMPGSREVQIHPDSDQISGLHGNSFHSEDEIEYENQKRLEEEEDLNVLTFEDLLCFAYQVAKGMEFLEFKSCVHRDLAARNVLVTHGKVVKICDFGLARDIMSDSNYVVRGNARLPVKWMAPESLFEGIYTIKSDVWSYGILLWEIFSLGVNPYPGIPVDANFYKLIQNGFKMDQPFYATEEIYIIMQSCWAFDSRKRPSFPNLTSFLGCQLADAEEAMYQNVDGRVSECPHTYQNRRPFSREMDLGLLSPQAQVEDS
Source text: FIG. 1: Evaluation of epitope specificity and internalization capability of anti-FLT3 monoclonal antibodies. (A) Affinity of seven anti-FLT3 monoclonal antibody (mab) clones to recombinant human FLT3 measured in enzyme-linked immunosorbent assay (ELISA) normalized to the binding of the antibodies to BSA control. […] (B) Schematic FLT3 receptor. Black arrows indicate common mutations and blue arrows indicate the three identified epitopes of seven anti-FLT3 antibodies analyzed in linear epitope mapping by PEPperPRINT. Figure was created with BioRender.com. (C) Binding and temperature induced internalization of anti-FLT3 antibodies in Ba/F3 cells expressing human wildtype FLT3. […] Remaining surface-bound antibody was detected in flow cytometry. […] MFI=mean fluorescence intensity. […] (D) Cell surface binding of 20D9 mab or control human IgG1 antibody to Ba/F3 cells stably expressing pMIY (Ba/F3-pMIY) empty vector (ev), human wildtype (hFLT3 wt) or ITD mutant human FLT3 (hFLT3ITD) was measured in flow cytometry. […] (E) Temperature induced internalization of 4B12 mab in MOLM-13 (FLT3 positive) cells after 30 min incubation at 37° C. compared to 4° C. and HL-60 (FLT3 negative) after 37° C. incubation assessed in immunofluorescence staining. […] (G) Cell surface binding of 20D9 mab or control hIgG1 antibody to Ba/F3-PMIY ev, hFLT3 wt or epitope mutant FLT3 (hFLT3/S50P/P54R) measured in flow cytometry. […]

[3] = target: T3, human wildtype FLT3 (hFLT3 wt) (Homo sapiens, UniProt P36888); assay: Cell surface binding to Ba/F3 hFLT3 wt, flow cytometry
T3 construct: expressed in transfected cells; host or cells: Ba/F3 cells, retrovirally transduced with MSCV-IRES-YFP (pMIY) vector
T3 sequence (P36888 27-993): T2 sequence (P36888 27-993)
Description: as §1
For FLT3 expression analysis, cells were stained on ice with primary mouse anti-FLT3-AF647 antibodies for 30 min. For antibody binding studies, cells were stained on ice with chimeric (20D9) or humanized anti-FLT3 antibodies (in house) or IgG1 control with or without Leu234Ala/Leu235Ala (LALA)-mutation in the Fc region and secondary antibody goat F(ab′)2 Anti-Human IgG-AF647 (2042-31) purchased from Southern Biotech for 30 min, respectively. Binding and expression were subsequently measured at the flow cytometer (BD FACSCanto II) and the results were evaluated with FlowJo version 10.8.1.

Affinity Kd (recombinant human FLT3): 0.0284 µg/mL | Internalization in Ba/F3-FLT3 [2]: 71% | Binding to Ba/F3-FLT3 cell line by flow cytometry [3]: specifically bound
B1: 29H1: chimeric anti-FLT3 antibody from mouse; VH SEQ ID NO: 13, VL SEQ ID NO: 14 (antibody, V domains shown)
VH: EVKLEESGGGLVQPGGSMKFFCVASGFTFSNYWMNWVRQSPEKGLEWVAQIKLKSDNYATRYAESVKGRFTISRDDSKSSVNLQMNNLRAEDTGIYYCTVSLARSDYWGQGTTLTVSSAS
VL: DVVMTQTPLTLSVAIGQPASISCKSSQSLLHSDGKTYLNWLLHRPGQSPKRLIYLVSKLDSGVPDRFTGSGSGTDFTLKISRVEAEDLGVYYCWQGTHFPYTFGGGTKLEIKR
modifications: Clone 29H1, heavy chain variable region without a signal seqeunce; Clone 29H1, light chain variable region without a signal seqeunce
Internalization in MOLM-13 [1]: 53%

Affinity Kd (recombinant human FLT3): 3.313 µg/mL
B2: 30B12: chimeric anti-FLT3 antibody from mouse; VH SEQ ID NO: 15, VL SEQ ID NO: 16 (antibody, V domains shown)
VH: QVQLKVSGPGLVQPSQTLSLTCAVSGFSLSNYHVSWVRQPPGKGLEWIAAISSGGSTYYNSPLKSRLSISRDTSKSQVFLKMNSLQTEDTAIYFCTGEDGYTFGNVMDAWGQGASVTVSSA
VL: B1 VL with A14T, H31Y, H43Q, Y92F, I111R
modifications: Clone 30B12, heavy chain variable region without a signalseqeunce; Clone 30B12, light chain variable region without a signalseqeunce

Affinity Kd (recombinant human FLT3): 0.01153 µg/mL | Internalization in Ba/F3-FLT3 [2]: 82% | Binding to Ba/F3-FLT3 cell line by flow cytometry [3]: specifically bound
B3: 27E7: chimeric anti-FLT3 antibody from mouse; VH SEQ ID NO: 11, VL SEQ ID NO: 12 (antibody, V domains shown)
VH: EVKLEESGGDLVQPGGSMKLSCVASGFTFRNYWMNWVRQSPEKGLEWVAQIRLKSDNYATHYAESVKGRFTMSRDDSKSSVYLQMNTLRAEDTGIYYCTVSLARSDYWGQGTTLTVSSA
VL: B1 VL with T7S, A14T, H31Y, H43Q, I111L
modifications: Clone 27E7, heavy chain variable region without a signal sequence; Clone 27E7, light chain variable region without a signal seqeunce
Internalization in MOLM-13 [1]: 69%

Residue numbers refer to the chain shown, from its start. One block for each molecule: values may come before it.
